Assay results published in PubChem BioAssay (Tox21).
Inconclusive results, whose numbers are uncertain, are shown with a selection of clear calls. For part of these data: Potencies beside an inconclusive call are fits to weak or partial responses and may not hold up. Activity calls are given as the source filed them. Unless noted, calls come from the whole dose curve; as a rule, active = well fitted curve in the direction sought with a large enough effect in the repeat runs; inconclusive = weak or mixed curves; inactive = no such curve, though single readings can be large; an effect the other way counts as inactive or inconclusive.

Key:
[1] = qHTS assay to identify small molecule antagonists of the estrogen related receptor (ERR) signaling pathway from Tox21 library - cell viability counter screen (AID 1224834); note: potency is the fitted concentration of half-maximal effect; nearly all actives have a fitted effect of over 30% in size
Procedure, shortened: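 ERR reporter cells were plated 6 h before compound addition, then exposed to test compounds in DMSO for 17.5 h at 37 C. Viability was read as CellTiter-Fluor fluorescence after a 30-minute incubation at 37 C.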

[2] = qHTS assay to identify small molecule agonists of the constitutive androstane receptor (CAR) signaling pathway - cell viability counter screen (AID 1224836); note: potency is the fitted concentration of half-maximal effect; nearly all actives have a fitted effect of over 45% in size
Procedure, shortened: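 Cell viability multiplexed with the CAR agonist screen: CellTiter-Fluor fluorescence after 23 hr at 37 C. HepG2-CYP2B6-hCAR cells got compounds at 15 concentrations with PK11195 at 0.75 uM final.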

[3] = qHTS assay to identify small molecule antagonists of the estrogen related receptor signaling pathway with the pleiotropic PPARgamma coactivator (PGC) from Tox21 10K library - cell viability counter screen (AID 1224840; active = well fitted cell-killing curve with a large enough effect in the repeat runs, not every such curve was filed as active; inconclusive = weak or mixed curves, or effect the other way; inactive = no such curve, though single readings can be large or run the other way; note: potency is the fitted concentration of half-maximal effect; nearly all actives have a fitted effect of over 40% in size)
Procedure, shortened: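 PGC/ERR cells were seeded at 2,000 cells/well and left 6 hours at 37 C/5% CO2 before pin-tool addition of compounds in DMSO. After 17.5 hours at 37 C, CellTiter-Fluor was added and fluorescence read 30 minutes later.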

[4] = target: Thyrotropin receptor (Homo sapiens) (UniProt P16473); experiment: qHTS assay to identify small molecule agonists of the thyroid stimulating hormone receptor (TSHR) signaling pathway (AID 1224843; calls by dose curve; note: nearly all actives have a fitted effect of over 45% in size); settings: TSHR-HEK293 cells, cAMP HTRF, agonist mode, 30 min; activation: at 92.4 µM (top of the series) unless noted
Procedure, shortened: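 Screening of the Tox21 10K collection used HEK293 cells engineered with TSHR at 800 cells per well. After a 30-min room-temperature compound exposure, HTRF cAMP reagents were added and fluorescence recorded 1 h later.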

[5] = qHTS assay to identify small molecule agonists of H2AX (AID 1224845; active = well fitted activation curve with a large enough effect in the signal ratio in the repeat runs, not every such curve was filed as active; inconclusive = weak or mixed curves; the % refers to the signal ratio; note: potency is the fitted concentration of half-maximal effect); settings: CHO-K1 phospho-H2AX Ser139 HTRF, 3 h; series mostly up to 154 µM
Procedure, shortened: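 Phospho-H2AX Ser139 measured by HTRF (ex 320 nm; em 665 and 620 nm) after 24 hr antibody incubation. Compounds, 15 concentrations, 0.76% DMSO, were applied to CHO-K1 cells for 3hr at 37C before lysis.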

[6] = qHTS RealTime-Glo MT Cell Viability Assay in HEK293 cells - 32 hour (AID 1224868); note: potency is the fitted concentration of half-maximal effect; nearly all actives have a fitted effect of over 50% in size
Procedure, shortened: (§1)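 Reads taken at 0, 8, 16, 24, 32 and 40 h from the same wells. HEK293 cells (600/well) carried RealTime-Glo reagents from seeding, with compound added after a 5 h settle at 37 C.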

[7] = qHTS RealTime-Glo MT Cell Viability Assay in HEK293 cells - 16 hour (AID 1224872); note: potency is the fitted concentration of half-maximal effect; nearly all actives have a fitted effect of over 50% in size
Procedure, shortened: as §1

[8] = qHTS RealTime-Glo MT Cell Viability Assay in HEK293 cells - 40 hour (AID 1224874); settings: RealTime-Glo luminescence; max response: stronger effect = lower value; note: potency is the fitted concentration of half-maximal effect; nearly all actives have a fitted effect of over 50% in size
Procedure, shortened: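 HEK293 cells mixed with RealTime-Glo reagents (NanoLuc plus cell-permeant prosubstrate) at 600 cells/well, preincubated 5 h at 37 C/5% CO2, then given 23 nL compound in DMSO. Nonlytic luminescence from viable cells was read at 0, 8, 16, 24, 32 and 40 h.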

[9] = A CellTox Green Cytotoxicity Assay to monitor cytotoxicity in HepG2 cells - 40 hour (AID 1224879); note: nearly all actives have a fitted effect of over 40% in size
Procedure, shortened: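 HepG2 cells were seeded together with the CellTox Green dye at 600 cells/well, left 5 h at 37 C/5% CO2, then given compounds in DMSO. Fluorescence from dye bound to dead-cell DNA was read repeatedly over 40 h of treatment at 37 C.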

[10] = qHTS RealTime-Glo MT Cell Viability Assay in HEK293 cells - 24 hour (AID 1224886); note: potency is the fitted concentration of half-maximal effect; nearly all actives have a fitted effect of over 50% in size
Procedure, shortened: as §1

[11] = qHTS assay to identify small molecule antagonists of the estrogen receptor alpha (ER-alpha) signaling pathway using the BG1 cell line in the presence of 0.1 nM 17-beta-estradiol - cell viability counter screen (AID 1259241); note: potency is the fitted concentration of half-maximal effect; nearly all actives have a fitted effect of over 40% in size
Procedure, shortened: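 Cytotoxicity counter-screen: live-cell protease activity measured by fluorescence (30 min reagent step) in the same wells. Cells were VM7Luc4E2 with endogenous ER-alpha and ERE-driven luciferase, treated 22 hr at 37C alongside 0.1 nM 17beta-estradiol final.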

[12] = qHTS assay to identify small molecule agonists of the sonic hedgehog signaling (Shh) pathway - cell viability counter screen (AID 1259366)
Procedure, shortened: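 Cytotoxicity counter screen: CellTiter-Fluor reagent added after 23 h compound exposure, then 1 h at 37C and fluorescence read. Cells were 3T3 Gli1-Luc, seeded 2,000 per well and dosed 4 h post-plating.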

[13] = qHTS assay to identify small molecule antagonists of the sonic hedgehog signaling (Shh) pathway - cell viability counter screen (AID 1259367); note: potency is the fitted concentration of half-maximal effect; nearly all actives have a fitted effect of over 55% in size
Procedure, shortened: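 Cells: 3T3 Gli1-Luc, 2,000/well, 4 hr pre-incubation. Compounds in DMSO, then conditioned medium. Incubation 24 hr, 37C, 5% CO2. CellTiter-Fluor at 23 hr, 1 hr, fluorescence.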

[14] = qHTS assay to identify small molecule antagonists of the sonic hedgehog signaling (Shh) pathway (AID 1259369; calls by dose curve; note: potency is the fitted concentration of half-maximal effect; nearly all actives have a fitted effect of over 45% in size)
Procedure, shortened: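 NIH/3T3-derived 3T3Gli1-Luc cells with stably integrated Gli1-Luc reporter were preincubated 4hr at 37 C, then given compounds in DMSO plus Shh conditioned medium and incubated 24hr. Firefly luciferase luminescence read after 30min reagent at room temperature.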

[15] = qHTS assay to identify small molecule agonists of the androgen receptor (AR) signaling pathway in the presence of an antagonist - cell viability counter screen (AID 1259379); note: potency is the fitted concentration of half-maximal effect; nearly all actives have a fitted effect of over 25% in size
Procedure, shortened: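 MDA-kb2 human breast carcinoma cells (stable MMTV-luciferase, AR/GR responsive) were seeded 3,000 cells/well, pre-incubated 5 hr at 37C without CO2, then given 3.0uM nilutamide and compounds at 15 concentrations for 16 hr. Viability was read by CellTiter-Fluor fluorescence.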

[16] = target: Thyrotropin receptor (Homo sapiens) (UniProt P16473); experiment: qHTS assay to identify small molecule antagonists of the thyroid stimulating hormone receptor (TSHR) signaling pathway (AID 1259385; calls by dose curve; note: potency is the fitted concentration of half-maximal effect; nearly all actives have a fitted effect of over 20% in size); settings: TSHR-HEK293 cAMP HTRF, TSH-stimulated antagonist mode; series mostly up to 92.4 µM
Procedure, shortened: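 Antagonist mode: compound-treated TSHR-expressing HEK293 cells were stimulated with 1.5 ng/mL TSH (final) in presence of Ro20-1724 for 30 min at RT. HTRF cAMP detection after 1 h; each compound tested at 15 concentrations, triplicate.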

[17] = qHTS assay to identify small molecule agonists of the estrogen receptor alpha (ER-alpha) signaling pathway in the presence of an antagonist - cell viability counter screen (AID 1259386);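 note: potency is the fitted concentration of half-maximal effect; cells exposed to compounds for 22 h at 37 °C before the viability read; nearly all actives have a fitted effect of over 30% in size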
Procedure, shortened: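 VM7Luc4E2 cells (endogenous full-length ER-alpha, 4×ERE-luciferase) were held 5 days in phenol red-free medium with 10% charcoal-stripped FBS, plated, then given 10.0nM ICI-182,780 and compounds at 15 concentrations for 22hr at 37C; viability read by CellTiter-Fluor fluorescence.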

[18] = Human pregnane X receptor (PXR) small molecule agonists, qHTS cell viability counter screen (AID 1346977); note: nearly all actives have a fitted effect of over 50% in size
Procedure, shortened: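 Same-well viability read: CellTiter-Fluor added after 23 hr compound exposure, fluorescence measured 1 hr later. Cells were PXR-Luc HepG2 seeded at 2,000/well in 5% charcoal-stripped FBS medium, rested 5 hr before dosing at 37 C.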

[19] = Caspase-3/7 induction in CHO-K1 cells by small molecules, qHTS cell viability counter screen (AID 1346979); note: potency is the fitted concentration of half-maximal effect; nearly all actives have a fitted effect of over 35% in size
Procedure, shortened: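 Cytotoxicity counter screen: CellTiter-Fluor added to compound-treated wild-type CHO-K1 cells at 16 h (37C, 5% CO2), fluorescence measured 1 h later; same wells as caspase-3/7 measurement.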

[20] = Caspase-3/7 induction in HepG2 cells by small molecules, qHTS cell viability counter screen (AID 1346981); note: potency is the fitted concentration of half-maximal effect; nearly all actives have a fitted effect of over 30% in size
Procedure, shortened: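 Wild-type HepG2 cells (2,000/well) were allowed to settle for 5 hr at 37 C, 5% CO2, then dosed with compounds in DMSO by pin transfer. After 16 hr at 37 C, CellTiter-Fluor was added and fluorescence read 1 hr later.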

[21] = target: Nuclear receptor subfamily 1 group I member 2 (Homo sapiens) (UniProt O75469); experiment: Human pregnane X receptor (PXR) small molecule agonists, qHTS assay (AID 1346982); note: potency is the fitted concentration of half-maximal effect; nearly all actives have a fitted effect of over 35% in size
Procedure, shortened: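 PXR-Luc HepG2 cells (CYP3A4 promoter-driven luciferase) were seeded in medium with 5% charcoal-stripped FBS, left 5 hr at 37 C, then exposed to compounds in DMSO for 24 hr. Luminescence was read after ONE-Glo addition.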

[22] = target: Cytochrome P450 2D6 (Homo sapiens) (UniProt P10635); experiment: Cytochrome P450 Family 2 Subfamily D Member 6 (CYP2D6) small molecule antagonists: luciferase reporter qHTS assay (AID 1671196)
Procedure, shortened: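 CYP2D6 enzyme–substrate mix was held with compound for 10 min at room temperature, then NADPH regeneration solution was added and the reaction ran 1 h at room temperature. Luciferin product was detected by luminescence after 20 min with detection reagent.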

[23] = target: Cytochrome P450 2C19 (Homo sapiens) (UniProt P33261); experiment: Cytochrome P450 Family 2 Subfamily C Member 19 (CYP2C19) small molecule antagonists: luciferase reporter qHTS assay (AID 1671197); note: potency is the fitted concentration of half-maximal effect; nearly all actives have a fitted effect of over 65% in size
Procedure, shortened: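 Quantitative high-throughput screen of the Tox21 library using CYP2C19 with proluciferin substrate. Reaction: NADPH regeneration, 37C, 1 h, after 10 min compound preincubation at room temperature. Readout: luminescence.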

[24] = target: Cytochrome P450 1A2 (Homo sapiens) (UniProt P05177); experiment: Cytochrome P450 Family 1 Subfamily A Member 2 (CYP1A2) small molecule antagonists: luciferase reporter qHTS assay (AID 1671199)
Procedure, shortened: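 Human CYP1A2 activity measured with a P450-Glo proluciferin substrate; compounds in DMSO preincubated 10 min at room temperature with enzyme-substrate mix, then NADPH regeneration system added for 1 h. Luciferin detection reagent, 20 min, luminescence read.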

Measured: Potency
Tags give direction and shape of the fitted curve or compound fluorescence and quenching.

Sequence of UniProt P16473 (P16473 whole entry, looked up): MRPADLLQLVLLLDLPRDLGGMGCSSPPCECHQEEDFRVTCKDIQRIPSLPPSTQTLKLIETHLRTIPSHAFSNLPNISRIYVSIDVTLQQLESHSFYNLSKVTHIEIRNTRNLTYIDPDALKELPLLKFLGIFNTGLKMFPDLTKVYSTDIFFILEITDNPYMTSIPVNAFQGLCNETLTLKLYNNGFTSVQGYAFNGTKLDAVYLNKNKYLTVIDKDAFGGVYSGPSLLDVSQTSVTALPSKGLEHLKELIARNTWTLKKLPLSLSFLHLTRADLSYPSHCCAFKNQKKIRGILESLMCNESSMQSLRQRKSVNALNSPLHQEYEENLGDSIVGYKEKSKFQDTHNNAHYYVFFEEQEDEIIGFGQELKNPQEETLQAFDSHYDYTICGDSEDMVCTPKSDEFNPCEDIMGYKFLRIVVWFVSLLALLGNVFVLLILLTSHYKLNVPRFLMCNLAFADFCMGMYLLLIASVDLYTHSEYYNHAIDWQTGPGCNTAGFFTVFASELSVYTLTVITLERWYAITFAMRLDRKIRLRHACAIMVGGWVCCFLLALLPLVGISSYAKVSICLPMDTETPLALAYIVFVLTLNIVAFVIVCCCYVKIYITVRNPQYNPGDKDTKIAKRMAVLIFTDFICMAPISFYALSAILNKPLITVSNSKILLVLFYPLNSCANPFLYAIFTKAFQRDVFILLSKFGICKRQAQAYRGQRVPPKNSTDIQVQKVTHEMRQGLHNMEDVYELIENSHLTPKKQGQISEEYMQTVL
Sequence of UniProt P33261 (P33261 whole entry, looked up): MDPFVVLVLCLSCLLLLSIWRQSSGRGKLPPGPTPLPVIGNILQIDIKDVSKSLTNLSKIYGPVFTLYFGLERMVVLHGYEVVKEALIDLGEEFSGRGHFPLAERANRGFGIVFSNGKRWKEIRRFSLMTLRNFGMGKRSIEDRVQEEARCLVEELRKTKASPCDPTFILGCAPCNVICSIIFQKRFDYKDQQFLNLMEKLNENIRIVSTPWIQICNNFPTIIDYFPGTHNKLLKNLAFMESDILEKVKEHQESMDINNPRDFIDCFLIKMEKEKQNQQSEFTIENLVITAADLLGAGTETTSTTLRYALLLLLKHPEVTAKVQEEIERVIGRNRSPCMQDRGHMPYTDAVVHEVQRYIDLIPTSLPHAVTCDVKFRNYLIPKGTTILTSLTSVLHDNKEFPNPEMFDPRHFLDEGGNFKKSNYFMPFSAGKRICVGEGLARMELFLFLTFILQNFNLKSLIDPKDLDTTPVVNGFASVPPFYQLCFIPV
Sequence of UniProt O75469 (O75469 whole entry, looked up): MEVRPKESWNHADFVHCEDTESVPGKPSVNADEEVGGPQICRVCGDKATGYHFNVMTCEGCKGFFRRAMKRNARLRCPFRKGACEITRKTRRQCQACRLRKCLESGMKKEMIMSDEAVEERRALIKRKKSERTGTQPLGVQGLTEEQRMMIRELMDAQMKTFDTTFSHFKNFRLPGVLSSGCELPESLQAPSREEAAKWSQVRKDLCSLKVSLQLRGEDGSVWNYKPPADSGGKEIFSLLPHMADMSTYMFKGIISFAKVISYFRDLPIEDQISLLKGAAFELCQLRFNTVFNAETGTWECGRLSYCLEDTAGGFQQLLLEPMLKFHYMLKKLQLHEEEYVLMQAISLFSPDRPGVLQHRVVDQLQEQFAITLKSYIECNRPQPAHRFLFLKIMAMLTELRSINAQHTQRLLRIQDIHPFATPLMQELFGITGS
Sequence of UniProt P10635 (P10635 whole entry, looked up): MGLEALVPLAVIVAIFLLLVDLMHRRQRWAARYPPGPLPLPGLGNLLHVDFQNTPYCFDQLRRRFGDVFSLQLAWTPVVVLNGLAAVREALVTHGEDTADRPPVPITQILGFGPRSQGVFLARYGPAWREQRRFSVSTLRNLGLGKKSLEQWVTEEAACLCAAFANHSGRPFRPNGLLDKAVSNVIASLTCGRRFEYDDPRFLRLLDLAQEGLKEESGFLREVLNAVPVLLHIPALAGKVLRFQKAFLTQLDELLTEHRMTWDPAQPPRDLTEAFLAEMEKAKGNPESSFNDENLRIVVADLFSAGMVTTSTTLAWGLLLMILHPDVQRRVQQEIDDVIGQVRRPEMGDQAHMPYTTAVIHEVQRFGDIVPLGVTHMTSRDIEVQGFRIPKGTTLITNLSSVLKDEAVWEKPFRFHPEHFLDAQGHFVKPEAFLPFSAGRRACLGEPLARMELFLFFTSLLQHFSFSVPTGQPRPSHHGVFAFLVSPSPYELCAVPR
Sequence of UniProt P05177 (P05177 whole entry, looked up): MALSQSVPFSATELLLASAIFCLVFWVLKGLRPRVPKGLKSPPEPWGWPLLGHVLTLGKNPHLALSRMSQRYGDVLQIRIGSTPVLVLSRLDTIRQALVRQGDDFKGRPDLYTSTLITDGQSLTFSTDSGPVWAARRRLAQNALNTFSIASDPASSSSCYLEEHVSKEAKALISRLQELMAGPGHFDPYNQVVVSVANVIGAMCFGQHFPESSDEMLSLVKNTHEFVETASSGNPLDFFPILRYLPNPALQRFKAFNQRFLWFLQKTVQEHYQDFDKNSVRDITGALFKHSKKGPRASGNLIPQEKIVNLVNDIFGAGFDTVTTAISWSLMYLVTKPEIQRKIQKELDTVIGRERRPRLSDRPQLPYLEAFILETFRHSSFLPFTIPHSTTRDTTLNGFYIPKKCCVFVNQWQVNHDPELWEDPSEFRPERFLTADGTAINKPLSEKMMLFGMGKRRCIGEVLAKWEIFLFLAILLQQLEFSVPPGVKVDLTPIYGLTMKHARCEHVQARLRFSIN

Nc1cccnc1N
inconclusive: [1] 48.6 µM [rising, partial curve] | [2] 54.5 µM [rising, partial curve] | [3] 54.5 µM [rising, partial curve] | [5] 127 µM | [6] 30.9 µM [rising, partial curve] | [7] 49 µM [rising, partial curve] | [8] 24.5 µM [rising, partial curve] | [10] 43.6 µM [rising, partial curve] | [11] 30.6 µM [rising, partial curve, poor fit] | [12] 54.5 µM [rising, partial curve] | [13] 54.5 µM [rising, partial curve] | [14] 6.86 µM [inhibitor, full curve, poor fit] | [15] 68.6 µM [rising, single point] | [16] 77 µM [falling, single point] | [17] 54.5 µM [rising, partial curve] | [19] 48.6 µM [rising, partial curve] | [20] 61.1 µM [rising, partial curve] | [21] 61.1 µM [activator, single point] | [22] 63.3 µM [inhibitor] | [23] 89.4 µM [inhibitor, single point] | [24] 39.9 µM [inhibitor, partial curve]
inactive: [4] | [9] | [18]
